Reference: article PMC6212790
This is one part of the list. At the low end of the ranking the order means little.

Molecular target: T1, GST-Rok-C97-191 (UniProt O34857)
T1 sequence: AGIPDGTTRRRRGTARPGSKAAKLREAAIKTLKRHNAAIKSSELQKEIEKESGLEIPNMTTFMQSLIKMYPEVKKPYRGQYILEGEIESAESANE
Assay: protein binding microarray;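 note: rank score from −0.5 (least bound) to 0.5 (best bound)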
Details: Rok is a gene silencer of Bacillus subtilis; high values mean tight binding; most listed sequences are background and not binding sites; double strand, one strand shown

Sequence | binding signal [E-score]
GACCAGCC | -0.331
CTACGATA | 0.316
GCCCTTTA | -0.17
GAGGCAGC | -0.268
AATTACAT | 0.339
CCACGAGA | -0.237
CGGCGTTA | 0.103
GGACTCTA | -0.0774
GGAAGGTA | 0.0786
AGTAAAAC | 0.246
ACGGGACT | 0.158
AGCGTAGC | -0.233
ACGAGATA | 0.142
ATATAGAG | 0.165
GCTTCTCA | 0.0108
ATTTTCCG | 0.329
ATTTCAGC | 0.178
ATCATAAA | 0.247
ATAATGAC | 0.105
AGAACGGC | 0.0736
AAGTATCA | 0.107
CAATGCGA | -0.0881
CATAATCG | 0.114
GACGTTGA | -0.161

Sequence | binding signal [E-score]
CAAGGCCC | -0.358
AAAATCTG | 0.00361
AATTGTCA | -0.201
GACACTGC | -0.137
GCAAGTAC | 0.257
CATAATTC | 0.182
CGGATAAG | -0.0845
AATCGGGG | -0.184
ACACGCGG | -0.181
CCGACTTA | 0.089
CCTGCAAG | -0.238
AGCCCGTG | -0.127
CCAACTGC | 0.0316
ACCACCTG | -0.116
CAAGCATG | -0.127
CATCCTGA | -0.13
ACTTACCA | 0.219
AGTTTGAC | -0.0921
ACACAAAT | 0.159
GTCCGTGA | -0.229
ACTTTAGG | 0.0834
AGCAGCCA | -0.192
AGGTGGCA | -0.245
CACTTTGC | -0.0894

Sequence | binding signal [E-score]
ATCAAAGA | 0.0322
CAAGTCAA | 0.144
ATCCCCCA | -0.27
ATTTTGCA | 0.101
CTGGTATA | 0.205
ACGGCCGC | -0.224
GGTGGCCA | -0.204
ACGTGGTG | -0.136
ACCGTTTA | -0.0269
GCACCGGC | -0.224
CCCGTCCC | -0.145
CAGGGCCC | -0.318
CTTAGAAG | -0.0526
CTGCCGGC | -0.084
ATCTTTCA | 0.0961
ATGCCCGA | -0.167
GCGTTGCA | -0.176
AAGGCCGC | -0.192
ACTGGCAC | -0.224
CGTGTAGC | -0.0895
AAGTCCCC | -0.12
CGTGCTAC | 0.182
AATAAACA | 0.179
GTTTGACA | -0.165

Sequence | binding signal [E-score]
ATTAGTGC | 0.199
ACGTATAA | 0.268
CGGCGCCC | -0.139
CCATGAAC | -0.0824
AGCGGTAC | -0.208
CAATTGCC | -0.106
ACTCTTGG | -0.111
ATGCCGTA | 0.00241
ACTCATCG | 0.0111
AGGAGCGC | -0.246
ATATACAC | 0.289
TCCATAAA | -0.0431
AAAGCGTA | 0.0298
CAACCGAG | -0.155
AAGTTTGG | 0.0482
CTCTACTC | -0.00133
GAGTAATC | 0.149
AAGTTGGA | -0.145
CACAGCAG | -0.357
ATTCCAAG | 0.00122
ACGTCCCA | -0.183
ACCCGGAC | -0.245
